Some of the results follow. Rule as the data show it: active = 3.2 or more and inactive = the rest. The signal is at background level for most entries.
Assays:
Assay in all cases: enrichment score (SH2-bound / input frequency) (ratio); bacterial display of known human phosphotyrosine sites (pTyr-Var adds point mutants) read by sequencing; higher = stronger binding; tyrosines were phosphorylated by kinases first
Settings in all cases: peptide library: pTyr-Var
[1] = target: SHP2 C-SH2 domain E139D
[2] = target: SHP2 C-SH2 domain wild-type
[3] = target: SHP2 N-SH2 domain L43F
[4] = target: SHP2 N-SH2 domain T42A
[5] = target: SHP2 N-SH2 domain T52S
[6] = target: SHP2 N-SH2 domain wild-type

Measured: enrichment score
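Also: displayed peptides selected on beads carrying the immobilized SH2 domain, with library peptides lacking any tyrosine serving as negative controls.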

PLRPDYQEPSR [DDR2_Y481]
inactive: [1] 0.849 | [2] 0.995 | [3] 0.816 | [4] 0.701 | [5] 1.02 | [6] 1.2

TKFRNYLIPKG [CYP2C8_Y379]
inactive: [1] 0.952 | [2] 0.829 | [3] 0.803 | [4] 0.882 | [5] 0.858 | [6] 0.988

PQGVRYTFTID [DCX_Y103_I104T_YF]
inactive: [1] 1.48 | [2] 1.3 | [3] 1.39 | [4] 1.83 | [5] 1.27 | [6] 1.13

TQNAVYSAANY [DDX5_Y535_G533A]
inactive: [1] 0.681 | [2] 0.714 | [3] 0.695 | [4] 0.599 | [5] 0.513 | [6] 0.682

FSGDCYRIQGR [DDR2_Y741_Y740C_YF]
inactive: [1] 0.829 | [2] 0.834 | [3] 0.865 | [4] 0.667 | [5] 0.593 | [6] 1.12

LYSGDYYRIQG [DDR2_Y740]
inactive: [1] 0.833 | [2] 0.827 | [3] 0.903 | [4] 0.641 | [5] 0.871 | [6] 0.997

AARVSYWLASG [DCHS1_Y1582_R1583W]
inactive: [1] 0.732 | [2] 0.954 | [3] 0.796 | [4] 0.721 | [5] 0.926 | [6] 1.02

ALTRSYIRERV [CYP2C8_Y243_K247R]
inactive: [1] 0.27 | [2] 0.263 | [3] 0.287 | [4] 0.323 | [5] 0.342 | [6] 0.365

SQAPGYSYTAA [CYCS_Y47_G42S]
inactive: [1] 0.714 | [2] 0.675 | [3] 0.781 | [4] 0.423 | [5] 0.794 | [6] 0.652

RNGDRYFKEIV [DCX_Y64_G67E]
inactive: [1] 0.662 | [2] 0.449 | [3] 0.913 | [4] 0.562 | [5] 0.502 | [6] 0.74

TQNGVYSAANF [DDX5_Y535_YF]
inactive: [1] 0.693 | [2] 0.801 | [3] 0.728 | [4] 0.695 | [5] 0.74 | [6] 0.817

LFSGDYFRIQG [DDR2_Y740_YF]
inactive: [1] 1.5 | [2] 1.24 | [3] 1.38 | [4] 1.1 | [5] 1.08 | [6] 1.27

PPKFFDTRKLL [CYBB_Y41_Y41D]
inactive: [1] 1.07 | [2] 0.666 | [3] 1.15 | [4] 1.3 | [5] 0.911 | [6] 0.804

RPCVVYGGADI [DDX3X_Y301]
inactive: [1] 0.916 | [2] 0.776 | [4] 0.722 | [5] 0.606 | [6] 0.867

GVRTIYTIDGS [DCLK2_Y124]
inactive: [1] 0.75 | [2] 0.639 | [3] 0.761 | [4] 0.726 | [5] 0.705 | [6] 0.616

NLMPAYFKCIQ [CYP21A2_Y190_YF]
inactive: [1] 0.819 | [2] 0.879 | [3] 0.947 | [4] 0.805 | [5] 0.612 | [6] 1.25

RTVPLYESPRK [DDB1_Y718]
inactive: [1] 0.678 | [2] 0.852 | [3] 0.685 | [4] 0.56 | [5] 0.79 | [6] 0.844

SDIEEYVHRIG [DDX3X_Y525]
inactive: [1] 0.766 | [2] 0.768 | [4] 0.649 | [5] 0.697 | [6] 0.786

QGRQTYLPQPA [DDR2_Y813]
inactive: [1] 0.708 | [2] 0.673 | [3] 0.755 | [4] 0.608 | [5] 0.801 | [6] 1

— the supplement of paper PMC10369915
